Results published in the antibiotic and cytotoxicity screens of Wong et al. (2023).
Some of the results follow.

Experiments:
[1] = system: HSkMC (human skeletal muscle cells); test: cytotoxicity call (relative viability < 0.9); settings: 10 µM
[2] = system: HepG2; test: cytotoxicity call (relative viability < 0.9); settings: 10 µM
[3] = system: S. aureus RN4220; test: growth inhibition call (relative growth <= 0.2); settings: 50 µM

| Structure (SMILES) | cytotoxicity call [1] | cytotoxicity call [2] | growth inhibition call [3] |
| --- | --- | --- | --- |
| C[C@H](CO)N1C[C@H](C)[C@H](CN(C)C(=O)Nc2cccc3ccccc23)OCCCC[C@H](C)Oc2ccc(NC(=O)NC3CCCCC3)cc2C1=O | inactive | active | inactive |
| Cc1noc(C)c1NC(=O)N(C)C[C@H]1Oc2c(NC(=O)NC(C)C)cccc2C(=O)N([C@H](C)CO)C[C@@H]1C | inactive | inactive | inactive |
| COc1ccccc1O[C@@H](C)C(=O)NN | inactive | inactive | inactive |
| Cc1noc(C)c1NC(=O)Nc1ccc2c(c1)C(=O)N([C@H](C)CO)C[C@H](C)[C@@H](CN(C)Cc1ccccc1)OCCCC[C@@H](C)O2 | inactive | inactive | inactive |
| C[C@@H]1CN([C@@H](C)CO)C(=O)Cc2cc(NC(=O)Nc3ccccc3)ccc2O[C@H]1CN(C)C(=O)Nc1cccc2ccccc12 | inactive | inactive | inactive |
| CC(C)NC(=O)N(C)C[C@@H]1Oc2c(NC(=O)C3CCCCC3)cccc2C(=O)N([C@@H](C)CO)C[C@@H]1C | inactive | active | inactive |
| CN1c2ccccc2[C@@H](NCCCCCCC(=O)Nc2ccccc2N)c2ccc(Cl)cc2S1(=O)=O | inactive | inactive | inactive |
| N[C@@H](C(=O)O)c1cc(O)cc(O)c1 | inactive | inactive | inactive |
| CC(C)N1C[C@@H](CO)CC1=O | inactive | inactive | inactive |
| C[C@@H]1CN([C@H](C)CO)C(=O)c2cccc(NC(=O)C3CC3)c2O[C@H]1CN(C)S(=O)(=O)c1cn(C)cn1 | inactive | inactive | inactive |
| C[C@@H]1CCCCO[C@H](CN(C)CC2CC2)[C@H](C)CN([C@@H](C)CO)C(=O)c2cc(NC(=O)c3ccccc3)ccc2O1 | inactive | inactive | inactive |
